According to the CheMixHub viscosity set:
This continues a long series; more values of the same kind are listed elsewhere.

Assay: xn = mol fraction of the nth substance listed
Conditions: 101 kPa

OCC(O)CO + O
viscosity [mPa·s]
Conditions | 293.15 K | 295.65 K | 298.15 K
x1 = 0.00777 | 1.109 | – | 0.981
x1 = 0.0152 | 1.216 | – | 1.073
x1 = 0.021 | 1.31 | – | –
x1 = 0.02262 | 1.331 | – | 1.172
x1 = 0.03118 | 1.478 | – | 1.295
x1 = 0.03958 | 1.634 | – | 1.428
x1 = 0.04604 | 1.756 | – | 1.53
x1 = 0.047 | 1.76 | – | –
x1 = 0.05683 | 1.995 | – | 1.731
x1 = 0.07063 | 2.323 | – | 2.007
x1 = 0.077 | 2.5 | – | –
x1 = 0.07885 | 2.545 | – | 2.191
x1 = 0.08828 | 2.822 | – | 2.42
x1 = 0.1003 | 3.207 | – | 2.741
x1 = 0.1005 | – | – | 2.523
x1 = 0.1112 | 3.595 | – | 3.054
x1 = 0.12 | 3.72 | – | –
x1 = 0.1223 | 4.029 | – | 3.407
x1 = 0.1369 | 4.668 | – | 3.927
x1 = 0.154 | 5.618 | – | 4.611
x1 = 0.16 | 6 | – | –
x1 = 0.171 | 6.516 | – | 5.409
x1 = 0.1874 | 7.6 | – | 6.266
x1 = 0.1967 | 8.282 | 7.494 | 6.804
x1 = 0.2026 | – | – | 6.506
x1 = 0.2067 | 9.092 | 8.209 | 7.447
x1 = 0.2178 | 10.07 | 9.074 | 8.184
x1 = 0.225 | 10.79 | 9.679 | 8.756
x1 = 0.23 | 10.8 | – | –
x1 = 0.2378 | 12.06 | 10.79 | 9.731
x1 = 0.2459 | – | 11.64 | 10.47
x1 = 0.2622 | 14.99 | 13.35 | 11.96
x1 = 0.2636 | 15.13 | 13.46 | 12.05
x1 = 0.27 | 15.2 | – | –
x1 = 0.28 | 17.7 | – | –
x1 = 0.281 | – | – | 9.453
x1 = 0.2837 | 17.89 | 15.86 | 14.12
x1 = 0.3085 | – | – | 11.98
x1 = 0.31 | 22.5 | – | –
x1 = 0.3153 | 23.35 | 20.53 | 18.21
x1 = 0.3391 | 28.57 | 24.98 | 22.03
x1 = 0.365 | 35.11 | 30.57 | 26.81
x1 = 0.37 | 35.5 | – | –
x1 = 0.3785 | 38.98 | 33.8 | 29.61
x1 = 0.399 | – | – | 24.31
x1 = 0.4055 | 47.97 | 41.41 | 36.08
x1 = 0.4294 | 57.79 | 49.52 | 42.85
x1 = 0.44 | 60.1 | – | –
x1 = 0.452 | 70.28 | 60.08 | 51.9
x1 = 0.485 | 85.73 | 72.75 | 62.53
x1 = 0.5002 | – | – | 62.82
x1 = 0.5117 | 103.2 | 87.23 | 74.5
x1 = 0.53 | 109 | – | –
x1 = 0.5472 | 131.1 | 110.2 | 93.52
x1 = 0.5575 | 140.4 | 117.9 | 99.86
x1 = 0.5867 | 172.2 | 143.4 | 120.9
x1 = 0.6006 | – | – | 123.6
x1 = 0.6349 | 231.6 | 191.5 | 160.6
x1 = 0.64 | 219 | – | –
x1 = 0.6493 | – | – | 161
x1 = 0.659 | 268 | 220.5 | 183.8
x1 = 0.66 | 259 | – | –
x1 = 0.69 | 310 | – | –
x1 = 0.6917 | – | – | 202.1
x1 = 0.6978 | 337.9 | 276.5 | 229.2
x1 = 0.7166 | 375.6 | 306.8 | 254.7
x1 = 0.72 | 367 | – | –
x1 = 0.7442 | 442.3 | 359.9 | 295.9
x1 = 0.75 | 437 | – | –
x1 = 0.7646 | 481.7 | 390.7 | 321.5
x1 = 0.79 | 523 | – | –
x1 = 0.7947 | 565.6 | 457.6 | 374.9
x1 = 0.7958 | – | – | 364.5
x1 = 0.8114 | 618.5 | 499.5 | –
x1 = 0.82 | 624 | – | –
x1 = 0.8274 | 671.6 | 542.1 | –
x1 = 0.8428 | 724 | 582.9 | –
x1 = 0.859 | 783.5 | 629.6 | –
x1 = 0.86 | 765 | – | –
x1 = 0.9082 | 986 | 789.8 | –
x1 = 0.91 | 939 | – | –
x1 = 0.9434 | 1158 | 926 | –
x1 = 0.95 | 1150 | – | –
x2 = 0.0171 | 1385 | 1102 | –
